# According to PubChem BioAssay AID2147 (National Center for Advancing Translational Sciences (NCATS), 2009):
# The whole screen tested about 230,000 compounds, of which about 3,600 (1.6%) were called active. Inconclusive results, whose numbers are uncertain, are shown with a selection of clear calls. Calls follow the shape of the dose curve; as a rule, active = well fitted inhibition curve with a large enough effect (not every such curve was filed as active); inconclusive = small, poorly fitted or top-dose-only effect, or another doubt; inactive = no such curve, though single readings can be large or run the other way. Potencies beside an inconclusive call are fits to weak or partial responses and may not hold up.
# Target: Lysine-specific demethylase 4E (Homo sapiens) (UniProt B2RXH2)
# Test: qHTS Assay for Inhibitors of Human Jumonji Domain Containing 2E (JMJD2E)
# Details: JMJD2E catalytic domain, FDH-coupled NADH fluorescence (FDH is formaldehyde dehydrogenase); series mostly up to 57.1 µM
# Also: nearly all actives have a fitted effect of over 50% in size.
# Potency is read from the fitted curve at half-maximal effect; tags tell the direction and shape of the fitted curve.
# Sequence of UniProt B2RXH2 (B2RXH2 whole entry, looked up, the tested form may be a part): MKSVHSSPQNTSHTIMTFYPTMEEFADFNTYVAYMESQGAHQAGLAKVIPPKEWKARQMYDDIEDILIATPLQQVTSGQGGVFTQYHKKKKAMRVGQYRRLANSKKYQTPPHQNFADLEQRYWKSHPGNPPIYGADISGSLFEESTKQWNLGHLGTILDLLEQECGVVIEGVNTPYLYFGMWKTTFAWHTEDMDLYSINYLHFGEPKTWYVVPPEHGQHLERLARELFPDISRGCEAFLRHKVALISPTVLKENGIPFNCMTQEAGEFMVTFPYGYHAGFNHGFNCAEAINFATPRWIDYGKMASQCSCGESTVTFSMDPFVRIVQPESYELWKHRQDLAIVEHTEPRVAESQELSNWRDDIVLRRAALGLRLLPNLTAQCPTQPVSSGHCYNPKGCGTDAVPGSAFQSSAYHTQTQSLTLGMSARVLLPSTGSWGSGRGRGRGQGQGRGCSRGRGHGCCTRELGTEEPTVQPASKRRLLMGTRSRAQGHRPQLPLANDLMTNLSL
row,SMILES,Potency
1,Cc1nc(-c2ccc(Cl)cc2)sc1C1(C)CC(c2c(Cl)cccc2Cl)=NO1 (centres undefined),"inconclusive: 28.2 µM [inhibitor, partial curve]"
2,O=C(N/N=C/c1ccc(C(=O)O)cc1)C1=NNC(c2ccccc2)(c2ccccc2)C1,"inconclusive: 39.8 µM [inhibitor, single point]"
3,Cc1ccc(C)c(-c2nc3ccc(N)cc3[nH]2)c1,"inconclusive: 28.2 µM [inhibitor, partial curve]"
4,Oc1ccc(CN2CCC(Cc3ccccc3)CC2)c2cccnc12,"inconclusive: 39.8 µM [inhibitor, single point]"
5,CCn1c(=O)cc(SCC(=O)N2CCCCC2)c2ccccc21,"inconclusive: 39.8 µM [inhibitor, single point]"
6,COc1ccc(C(=O)/C=C/Nc2ccc(S(=O)(=O)Nc3nc(C)cc(C)n3)cc2)c(OC)c1,"inconclusive: 31.6 µM [inhibitor, partial curve]"
7,C/C=C(\C)C(=O)NCCN1C2=NC[C@H](C(C)C)N2C[C@H]1Cc1ccc(O)cc1,inactive
8,COc1ccc2c(CC(=O)O)cc(=O)oc2c1,"inconclusive: 31.6 µM [inhibitor, partial curve]"
9,C[C@H]1COc2c(N3CCN(C)CC3)c(F)cc3c(=O)c(C(=O)NCc4ccco4)cn1c23,"inconclusive: 28.2 µM [inhibitor, partial curve]"
10,CC(C)(C)C(=O)n1nc(-c2ccccc2)oc1=O,"inconclusive: 25.1 µM [inhibitor, partial curve]"
11,Cc1ccc(C(=O)CC(=O)c2cccc(F)c2)c(O)c1,"inconclusive: 39.8 µM [inhibitor, single point]"
12,CCCCOc1ccc(C(=O)N2CCCC2C(=O)O)cc1 (centres undefined),inactive
13,COc1cc(N/N=C/c2ccc(N(C)C)cc2)ncn1,"inconclusive: 25.1 µM [inhibitor, partial curve]"
14,O=C(NCc1cccnc1)c1cccnc1-c1nc2ccccc2s1,"inconclusive: 39.8 µM [inhibitor, single point]"
15,COc1ccc(N2C3=C(CC4=C2CCCC4=O)C(=O)CCC3)cc1,"inconclusive: 11.2 µM [inhibitor, partial curve]"
16,COc1ccc2c(c1OC)C(=O)OC2Nc1ccccn1 (centres undefined),"inconclusive: 25.1 µM [inhibitor, single point]"
17,O=c1c(-c2ccc(O)cc2)coc2cc(O)ccc12,"inconclusive: 31.6 µM [inhibitor, partial curve] [middle of 4 runs]"
18,COc1cc2ccccc2cc1C(=O)Nc1cccnc1,"inconclusive: 39.8 µM [inhibitor, single point]"
19,CCCc1cc(=O)oc2cc(C)c(CN3CCCC3)c(O)c12,"inconclusive: 20 µM [inhibitor, single point]"
20,Cc1cc(=O)[nH]c2ccc(Cl)cc12,inactive
21,O=C(CCl)N(c1ccccc1)C1CCCCC1,"inconclusive: 8.91 µM [inhibitor, single point]"
22,Cc1cc(=O)oc2cc(OCC(=O)OCC(=O)Nc3ccc(C(N)=O)cc3)ccc12,"inconclusive: 28.2 µM [inhibitor, single point]"

row,SMILES,Potency
1,Cc1cc(N/N=C/c2ccc(O)c(C)c2O)nc(-c2ccccc2O)n1,active: 25.1 µM
2,O=C(N/N=C/c1cccnc1)c1ccc(S(=O)(=O)N2CCCCCC2)cc1,"inconclusive: 35.5 µM [inhibitor, single point]"
3,Cc1ccc(N=Nc2c(C)[nH][nH]c2=O)c(C)c1,inactive
4,O=C(N/N=C/c1ccc([N+](=O)[O-])s1)c1cccc(Br)c1,inactive
5,O=C(NCCCO)Nc1ccc2nc(-c3ccco3)c(-c3ccco3)nc2c1,"inconclusive: 28.2 µM [inhibitor, partial curve]"
6,Cc1ccc(N=C2NC(=O)/C(=C/c3cccn3C)S2)cc1C,inactive
7,c1ccc(Cc2nnc3sc(-c4cccnc4)nn23)cc1,inactive
8,CSc1ccc(/C=C(/Sc2nnc(-c3ccccc3)o2)C(=O)O)cc1,"inconclusive: 31.6 µM [inhibitor, partial curve]"
9,CCc1ccccc1Nc1ccc(C(=O)O)cc1N,"inconclusive: 35.5 µM [inhibitor, partial curve]"
10,O=C(NN1C(=O)C2C(C1=O)C1C=CC2C12CC2)c1ccncc1 (centres undefined),"inconclusive: 28.2 µM [inhibitor, partial curve]"
11,COC(=O)N/N=C/c1cc(C)n(-c2ccc(F)cc2)c1C,"inconclusive: 39.8 µM [inhibitor, single point]"
12,Cc1cccnc1CN1CCN(Cc2nc(Cc3cccc(F)c3)no2)CC1,inactive
13,CC(C)c1ccc(C(=O)NC(=S)Nc2ccc3[nH]c(=O)[nH]c3c2)cc1,inactive
14,COc1ccc2nc(-c3ccccc3)[nH]c2c1,"inconclusive: 35.5 µM [inhibitor, partial curve]"
15,Cc1nc(N2CCOCC2)c2c(C)c(C(=O)Nc3ccc(C(F)(F)F)cc3)sc2n1,"inconclusive: 35.5 µM [inhibitor, single point]"
16,Cc1ccc2cc(CN(Cc3ccc4c(c3)OCO4)Cc3nnnn3Cc3ccco3)c(=O)[nH]c2c1C,"inconclusive: 35.5 µM [inhibitor, single point]"
17,CCN(CC)C(=O)CSc1nc(-c2ccccc2)ccc1C#N,"inconclusive: 31.6 µM [inhibitor, single point]"
18,Cc1ccc(-c2nnc(SCC(=O)N3CCN(c4ccccc4)CC3)o2)cc1,"inconclusive: 39.8 µM [inhibitor, single point]"
19,O=C1CC(N2CCN(c3ccccc3)CC2)C(=O)N1c1ccc2c(c1)OCCO2 (centres undefined),inactive
20,COc1cc2c(N3CCOCC3)cc(O)c(CC(=O)Nc3ccccc3)c2cc1OC,"inconclusive: 15.8 µM [inhibitor, partial curve]"
21,COc1cc(-c2nnc(-c3ccccc3)o2)cc(OC)c1OC,"inconclusive: 25.1 µM [inhibitor, partial curve]"
22,Cc1cc(NC(=O)CCC(=O)N(c2ccc(F)cc2)C(C(=O)NC2CCCC2)c2ccncc2)no1 (centres undefined),"inconclusive: 39.8 µM [inhibitor, single point]"
